B1: CPEB3 Ribozyme (parent)
chain: UAACAGGGGGCCACAGCAGAAGCGUUCACGUCGCAGCCCCUGUCAGAUUCUGGUGAAUCUGCGAAUUCUGCUGUAUAUCUC

Read counts are not given, so values of variants with three or more changes are uncertain.

This series covers variants of B1. Put plainly: self-cleavage, relative activity (ratio to wild type); higher = more cleavage; in vitro, sequencing. In short, it runs like this: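 Relative activity was defined as the cleaved/total read fraction for a variant divided by the same fraction for the unmutated ribozyme. CPEB3 self-cleaving ribozyme libraries were made by rounds of error-prone PCR, barcoded, and transcribed in vitro with T7 RNA polymerase for 5 hours at 37°C, and cleavage ran through transcription plus a 15 min DNase I step before EDTA. Illumina sequencing of template-switched reverse transcripts gave the reads, and DNA sequencing mapped the barcodes. Averages come from three batches, using variants with at least 5 reads.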
For the variant A47G U48C A56U U72C, the self-cleavage came to 0.18.
In the case of A47G U72C U78C it was 1.21.
As for A47U U54A U74C, the self-cleavage turned out to be 0.31.
The figure for A47G A56G U69A is 0.18.
As to A47G U48C A56U A57G U66C, the self-cleavage worked out at 0.11.
The figure for G46A U66C U78A U80C is 0.11; for U49C U54C A56G U78C it is 1.1; for U48C G55U U60C it is 0.12.
As for U49A U51A A77G, the self-cleavage amounted to 0.26.
The figure for U49A A56G A57G is 0.19; for U49A A56G A57C it is 0.15.
In the case of U48C U66C U67C, the self-cleavage is 0.12.
In the case of U48C U69C U72C U76A it was 0.25.
As for A47G U49C U54A U69C, the self-cleavage was found to be 0.24.
The figure for U48A U58C U72C U80G is 0.1; for A47G U58C U78A it is 1.22; for A47G U69C U72C it is 0.5.
For the variant G46A C59A U66C U69A, the self-cleavage was 0.47.
The figure for U48C U51C A57U is 0.22; for U49A U51C A64G it is 0.39; for U48C U51A G55U A57G U69C it is 0.17.
In the case of U49A U60C U66C it was 0.15; in that of U48C U54C U66C, 0.13.
In the case of A47G U49C G55C it was 0.24.
For A47U U48C A57G, the self-cleavage amounted to 0.75.
Consider U48C U51A A64U A77U U80C, for which the self-cleavage was determined as 0.12.
Take A47G U54A U58C: the self-cleavage came to 1.17.
Take G46U A47C A57G U67C U72C A75G: the self-cleavage was 0.09.
A47G U51A C59U: the self-cleavage turned out to be 0.42.
For the variant U48C U58A A65G, the self-cleavage came to 0.14.
In the case of U49C A64G U78C it was 0.1; in that of U48C U49C U72C, 0.16; in that of A45U U54A U69C U80C, 0.38.
The figure for U49A U54C A65G is 0.24; for U49A U58A A75C it is 0.19; for U48C U51C C62U it is 0.31.
The figure for U49C U58C C71U is 0.15; for U49C A57G A64G A65G it is 0.07.
U49A A64C U80C: the self-cleavage was 0.17.
The figure for U48C A57G U67C is 0.18; for A47G U66C A75G it is 0.09; for G46U U58C U67A it is 0.19.
In the case of U49C U54A U60A it was 0.11; in that of U49C U54A U60C, 0.21.
On to U48C U49C A56G A65C U76C U78C, for which the self-cleavage is 0.08.
Consider A47U U48C U51G G63U, for which the self-cleavage came out at 0.07.
The figure for G46C A47G C68A U72C U74C is 0.17; for U49C U66A U78G it is 0.16.
In the case of U48C C71U U72C U80G it was 0.39; in that of A47G U49C U54G, 0.15; in that of A47G U49C U54C, 0.48.
In the case of U48C A56G U60C U67C U69G it was 0.26; in that of U48C C62U U72C U78C, 0.18.
On to A45U U54C U76C, for which the self-cleavage was 0.64.
The figure for A45U U58C A65G is 0.09.
On to A47G A56U A75G, for which the self-cleavage came out at 0.51.
On to U49A U69C U80A, for which the self-cleavage worked out at 0.47.
In the case of U49C A57G A77U it was 0.21; in that of A47G A64G U66C G73A, 0.55.
In the case of A47G A77U U80C it was 1.11; in that of U49C U51A A65G, 0.22.
Turning to U49A G53A A56G, the self-cleavage stood at 0.72.
In the case of A47G U60C U69C it was 0.26; in that of A47G U51A A65G U66C, 0.11; in that of U49C U58A U74A, 0.16.
As for A47G U67C U76G, the self-cleavage stood at 0.33.
The figure for A47G U58A U78G is 0.39; for U48G A64G A77U it is 0.26; for A47G A64G U67C A77G it is 0.21.
As to U48C U54C U67C U69A U72C C79U, the self-cleavage is 0.15.
A47G U51A U69C: the self-cleavage was 0.52.
In the case of U49C A64G C81A it was 0.21.
The figure for U48C A56G U60A G63A U74C is 0.22.
The figure for A47C U48C C59U is 0.27; for U49A A56G U58C U80C it is 0.17; for U49A A56G U66A U67A it is 0.35.
For the variant U48G U51A U54C U67C, the self-cleavage came out at 0.31.
As for U49C U51C U76A A77G, the self-cleavage was 0.14.
Take U49A U54C A56G: the self-cleavage is 0.26.
For U49C U54G A57G U66C, the self-cleavage is 0.16.
On to A47G A64U U72C, for which the self-cleavage is 0.34.
In the case of U49C A65G U74C it was 0.14; in that of U48C A65G G73A, 0.47; in that of U49C A56G U67C U78G, 0.15.
Regarding U49C A56U A64U, the self-cleavage amounted to 0.08.
In the case of U49C A56G U80A it was 1.27; in that of U49C C50G U74C, 1.13; in that of U48C A56G U69C, 0.51.
In the case of U49C A64G U74A it was 0.19; in that of A45U U78G U80C, 0.35.
Take U49A A56G U58C U60C: the self-cleavage is 0.15.
The figure for U48G A56G A57G A75U U80C is 0.21; for G46A A47G U67A it is 0.17; for U49A U66C A75G it is 0.17.
Turning to A47G U49A A57G A65G U69A, the self-cleavage worked out at 0.08.
For the variant A47G A56U U69A, the self-cleavage is 0.24.
As for A47G U51A A57U, the self-cleavage worked out at 0.21.
A47G U51C C62U: the self-cleavage is 0.2.
The figure for U49A A56G U58C U72G is 0.28; for U49A U66C U80A it is 0.25; for U49C G53A U54C U66C it is 0.14.
As to U48C G53A U66C U72C, the self-cleavage was found to be 0.4.
In the case of U48C U72C U76C it was 0.46; in that of A47G A57G U58C A65G U78C, 0.39.
Regarding U49C G55U C59U, the self-cleavage was 0.1.
In the case of A47U U51C U80C it was 0.65.
Take A47G U48A U49A U67C: the self-cleavage stood at 0.08.
In the case of A45U U66C A77G it was 0.17; in that of U49C G55C A56G U80C, 1.24; in that of A47U G55A U78C U80G, 0.13.
In the case of U49A A64U A75G it was 0.14; in that of A45U U72C A75U, 0.14.
In the case of A45U U72G G73A, the self-cleavage is 0.65.
Consider A47G U67C U72C, for which the self-cleavage amounted to 0.36.
In the case of A47U U54A A65G it was 0.05; in that of A47G C62A U72A, 0.3.
A47U A56G U69G: the self-cleavage turned out to be 0.33.
The figure for A47G U51C A57G is 0.5.
In the case of U49C U54C U76C it was 0.32; in that of G46A G52U C68U U69C, 0.16; in that of U48C U67C A75U, 0.13.
The figure for U48C G55U U58C is 0.14.
For U48C A56G U60G, the self-cleavage was 0.24.
As for A47G A64G U67C U72C, the self-cleavage was 0.42.
On to U49C C50A U66C, for which the self-cleavage amounted to 0.25.
Regarding U49C G52A G61A, the self-cleavage was found to be 0.16.
Regarding U49A U51A A56G, the self-cleavage was 0.18.
On to U49A U54C U60C A64G U78C, for which the self-cleavage was found to be 0.15.
Take A47G U60C C81A: the self-cleavage came out at 0.45.
The figure for U48C U51C U58C G61A U72C C79A is 0.13; for A47G A56G A57G it is 0.33.
The figure for U49C U54G U58C U66C is 0.07; for A47U A56G A57G C59U U60A it is 0.11; for U49A U51A U60C U66A U80C it is 0.16.
For the variant U49C A57G A65U U78C, the self-cleavage is 0.36.
The figure for A47U G52C A56G G63U U72C is 0.35; for A47U A57G G70C U74G it is 0.04.
In the case of A47G A75G U78A it was 1.46; in that of U48C A57G U60A, 0.78.
In the case of A47G U48C U80C it was 0.28; in that of G46A U54C C59A, 0.27; in that of U49C G61A A77G, 0.38.
Take A47G A65G A77G: the self-cleavage turned out to be 0.42.
In the case of U49A U72C U78C it was 0.93; in that of A45U U67C U80A, 0.15; in that of A45U U67C U80G, 0.11.
The figure for A47U U76C U80C is 0.97; for G46U U72A U74G U76A it is 0.1; for A47G G53C A57G U67C U72C it is 0.57.
In the case of U48C A64U U78C it was 0.15; in that of G46U U49A U54A, 0.17.
In the case of U49A U54C U67C, the self-cleavage was 0.17.
In the case of U48C A57U U69C U72A it was 0.1; in that of U48C G70C U78C, 0.23.
Regarding A47U A56U A64G U78C, the self-cleavage is 0.11.
In the case of U48C U67A U80C it was 0.44; in that of A47G U60A U69C, 0.3; in that of A47C U51A U67C, 0.08.
Consider A47G U48A A56U, for which the self-cleavage stood at 0.31.
For U49C A56G A65G U66C, the self-cleavage was 0.16.
In the case of U48C U67C U80C it was 0.31; in that of U48C C50G U74A U80C, 0.25; in that of A47G A57U U66C, 0.18.
As to U49C A64U U76C, the self-cleavage is 0.16.
The figure for A47G U48C U60C U72G is 0.11.
Take A47U A56C U58C: the self-cleavage amounted to 0.39.
As for U49A A64G C79U, the self-cleavage was 0.59.

The values above are taken from the RNAGym collection of RNA variant scans (doi:10.1093/nar/gkz1192).
